Laboratory results: PubChem BioAssay AID1346428 (National Center for Advancing Translational Sciences (NCATS), 2018)
Where “and” joins values, the source holds several entries; their conditions need not be identical. Equal values may be shown once. Screen size: about 48,000 compounds; about 1,200 (2.5%) were called active. Inconclusive results (about 2%) are left out.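 The calls were made as follows: active = activation of at least 60% and not above a set upper limit (about 1 call in 100 departs from these limits); inconclusive = activation of 40% to 60%, or above that upper limit; inactive = activation under 40%.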 Some of the results follow.

These compounds were tested against Probable G-protein coupled receptor 32 (Homo sapiens) (UniProt O75388) (assay: qHTS for Agonists of Human Resolvin D1 Receptor DRV1). Details: CHO-K1 GPR32 beta-arrestin PathHunter luminescence, 90 min; at 76.9 µM; active compounds read high; zero percent set by DMSO-only wells.
Procedure, shortened: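 Using DMSO wells as EC0, agonist-induced signal was taken as chemiluminescence from beta-Gal reconstituted upon beta-arrestin recruitment to GPR32 in CHO-K1 cells after 90 min compound treatment.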
Also: 0% is about no effect.

UniProt O75388, sequence (O75388 whole entry, looked up): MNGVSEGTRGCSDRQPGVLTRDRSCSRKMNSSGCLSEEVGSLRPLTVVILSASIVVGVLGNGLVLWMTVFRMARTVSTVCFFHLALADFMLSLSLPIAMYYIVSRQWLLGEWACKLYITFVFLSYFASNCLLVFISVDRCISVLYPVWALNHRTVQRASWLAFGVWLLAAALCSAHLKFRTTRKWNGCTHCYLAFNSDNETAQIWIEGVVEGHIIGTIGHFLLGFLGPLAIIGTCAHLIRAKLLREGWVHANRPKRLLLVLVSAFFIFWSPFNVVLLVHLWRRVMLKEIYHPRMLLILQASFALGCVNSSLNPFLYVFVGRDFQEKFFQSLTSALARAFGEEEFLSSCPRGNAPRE

activation, inactive:
CCc1cccc2c(-c3ccc(F)cc3)nc(SCC(=O)Nc3ccccc3)nc12 -9.01%
CSc1cccc(NC(=O)N2CCN(c3cc(-c4noc(C)n4)ccc3C)CC2)c1 -2.39%
COc1ccc(-c2n[nH]c3c2C(c2ccc(O)cc2)N(c2ccc(Br)cc2)C3=O)cc1 (centres undefined) -5.77%
CCN1CCN(c2ncnc3c2cnn3-c2ccc(C)cc2)CC1 7.28%
C=C(C)CSc1nc2sc3c(c2c(=O)n1-c1ccccc1)CCC(C)C3 (centres undefined) 15.9%
O=C(NC1CCCCCC1)c1ccc2c(c1)sc1nc(-c3ccccc3)cn12 -13.4%
COc1cc(C2CC(=O)N(c3ccccc3)C3=C2C(=O)OC3)cc(OC)c1OC (centres undefined) 20.1%
CCOC(=O)c1c(C)[nH]c(C)c1S(=O)(=O)N1CCCC(C(=O)Nc2ccc(F)cc2F)C1 (centres undefined) 0%
CCOc1ccc(NC(=O)CSc2cn(CC(=O)N3CCCCCC3)c3ccccc23)cc1 4.14%
Cc1nc2ccc(S(=O)(=O)NC(CC(C)C)C(=O)N3CCN(c4ccc(F)cc4)CC3)cc2s1 (centres undefined) -12.7%
CCN(CC)CCCNC(=O)c1ccc2c(c1)NC(=O)C(CS(=O)(=O)Cc1cccc(Br)c1)N2 (centres undefined) -11.2%
Cc1ccc(CNC(=O)c2c(O)nc3c(C)cccn3c2=O)cc1 3.7%
CN(C)c1ccc(CNS(=O)(=O)c2ccc3[nH]c4c(c3c2)CCCCC4)cc1 48.5%
COc1ccc(Br)cc1CNC(=O)c1nn(-c2ccc(C)cc2)c(=O)c2c1c1ccccc1n2C 17.2%
Cc1ccccc1-c1noc(-c2cccnc2N(C)Cc2ccc(Cl)cc2)n1 -14.6%
Clc1ccccc1C(c1ccccc1)(c1ccccc1)n1ccnc1 -118% and 14.4%
NC(=O)NO -25.7% and 9.15%
CCOC(=O)c1cccc(NC(=O)CCC(=O)N2CC(C)Oc3ccc(C)cc32)c1 (centres undefined) -20.4%
CCOC(=O)c1ccc(NC(=O)c2csnn2)cc1 8.03%
O=C(C1CC1)N1CCN(c2nc3c(Cl)cccc3s2)CC1 -8.6%
Fc1ccc(Cc2cn3cc(-c4ccccc4)nc3s2)cc1 32.5%
CO/N=C1\CN(c2nc3c(cc2F)c(=O)c(C(=O)O)cn3C2CC2)CC1CN (centres undefined) -54.2%
COc1ccc(CCNC(=O)CSc2nnnn2-c2cccc(C(C)=O)c2)cc1OC 15.1%
CC1CCN(S(=O)(=O)c2ccc3c(c2)N(CC(=O)NC(C)C)C(=O)CO3)CC1 -12.5%
Cc1ccc(-c2nnc(Nc3ccc(Cl)c(Cl)c3)c3ccccc23)cc1S(=O)(=O)NCCO -4.34%
COc1cccc(CNC(=O)CSc2ncc(S(=O)(=O)c3ccc(Br)cc3)c(=O)[nH]2)c1 7.19%
CC1CCN(S(=O)(=O)c2ccc3c(c2)CCN3C(=O)Nc2ccc(Br)cc2)CC1 -13.6%
Cc1ccccc1C(=O)N1CCN(CCc2ccccn2)CC1 5.12%
Cc1ccc(NC(=O)C2CCCN2S(=O)(=O)c2cccc3nsnc23)cc1Cl (centres undefined) -7.84%
COc1ccc(CNC(=O)CSc2ncc(S(=O)(=O)c3ccc(C)c(Cl)c3)c(=O)[nH]2)cc1 -21.9%
COc1ccc(CNC(=O)c2ccc3c(c2)CCN3S(=O)(=O)c2ccc(C)cc2)cc1 -7.34%
Cc1c(C(=O)Nc2ccc(C(C)C)cc2)sc2nc[nH]c(=O)c12 -6.56%
O=S(=O)(c1ccc2c(c1)CCN2)N1CCCCCC1 -28.2%
Cc1ccc2c(c1)c1c(c(=O)n(Cc3ccccc3)c(=O)n1CC(=O)NCc1ccccc1Cl)n2C 25.7%
CN(C(=O)CN1C(=O)CCSc2ccc(S(=O)(=O)N3CCCC3)cc21)c1ccccc1 -19.2%
CCc1ccc(NCc2cc3cc(OC)c(OC)cc3n(CC(=O)Nc3cc(C)ccc3C)c2=O)cc1 -43.6%
COc1ccc(S(=O)(=O)N(CC(=O)NCc2ccccc2)c2ccc(C)cc2)cc1OC 31.2%
Cc1cccc(C)c1Nc1nc2ccccc2nc1NS(=O)(=O)c1ccccc1 46.9%
COc1ccc(C(C)n2c(C)c3c(C)nnc(C)c3c2C)cc1 (centres undefined) 32.2%
CCC(C)OC(=O)/C(C#N)=C\c1ccc(-c2cccc(C(F)(F)F)c2)o1 (centres undefined) -6.53%
O=C(Cn1c(=O)nc(-c2ccccc2)c2ccccc21)NCc1ccc(F)cc1 -12.9%
COc1ccc(-c2noc(CN(C(C)C)S(=O)(=O)c3ccc(Br)cc3)n2)cc1 -2.65%
CC1=C(C(=O)N2CCN(c3cccc(C)c3C)CC2)C2(CCCCC2)OC1=O -31.2%
C=Cc1ccc(CN2C(=O)c3ccccc3Sc3ccc(C(=O)OCc4ccco4)cc32)cc1 -26.4%
O=C(Nc1ccccc1)N(Cc1ccc(F)cc1)c1ccccn1 -11%
Cc1cc(O)c(C(c2ccccc2)N2CCN(C)CC2)c(=O)n1Cc1ccco1 (centres undefined) -4.98%
CCOC(=O)c1c(C)[nH]c(C)c1S(=O)(=O)NCC(=O)N1CCN(c2cccc(C)c2)C(C)C1 (centres undefined) 1.56%
Cc1cccc(NC2=CC(c3cccc(Br)c3)N(c3cccc(C)c3)C2=O)c1 (centres undefined) -29.3%
COc1ccccc1-c1noc(CCCC(=O)NCc2ccco2)n1 -6.45%
Cc1cc(C)cc(NC(=O)Nc2nnc(N(C)C3CCCCC3)s2)c1 -13%
COc1ccc(C(=O)Nc2nnc(C(C)C)s2)cc1OC -11.1%
COc1ccc2sc(N(Cc3cccnc3)C(=O)COc3ccccc3)nc2c1 -20.3%
CCOc1ccc(CCNc2nc3ccccc3n3c(C)nnc23)cc1OCC -3.49%
COc1cc(NC(=O)Cn2c(=O)n(CC3CCCO3)c(=O)c3ccccc32)cc(OC)c1 (centres undefined) -5.05%
